Reference: the supplement of paper PMC8728848
This is one part of the list.

Experiments:
Assay in all cases: glycan array binding signal (z-score within array); higher = stronger binding
Settings in all cases: glycan notation: IUPAC condensed, linker removed
[1] = target: Gal(b1-3)[Neu5Ac(a2-6)]GalNAc
How it was run: (§1)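 From the Consortium for Functional Glycomics database, 3228 arrays were curated, keeping only those whose protein sequence was available. Binding is given as a within-array Z-score averaged across arrays sharing a protein sequence and across linkers. Negative Z-scores can be read as non-binding.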

[2] = target: Gal(b1-3)[Neu5Ac(a2-6)]GlcNAc(b1-4)Gal(b1-4)Glc
How it was run: as §1

[3] = target: Gal(b1-3)[Neu5Ac(a2-6)]GlcNAc(b1-6)Gal(b1-4)Glc
How it was run: as §1

[4] = target: Gal(b1-3)[Neu5Ac(b2-6)]GalNAc
How it was run: as §1

Gal(b1-4)Gal = target: Gal(b1-4)Gal
How it was run: as §1

[5] = target: Gal(b1-4)GalNAc(a1-3)[Fuc(a1-2)]Gal(b1-4)GlcNAc
How it was run: as §1

[6] = target: Gal(b1-4)GalNAc(b1-3)[Fuc(a1-2)]Gal(b1-4)GlcNAc
How it was run: as §1

Gal(b1-4)Glc = target: Gal(b1-4)Glc
How it was run: as §1

Gal(b1-4)Glc6S = target: Gal(b1-4)Glc6S
How it was run: as §1

Gal(b1-4)GlcNAc = target: Gal(b1-4)GlcNAc
How it was run: as §1

[7] = target: Gal(b1-4)GlcNAc(a1-6)Gal(b1-4)GlcNAc
How it was run: as §1

Gal(b1-4)GlcNAc(b1-2)Man = target: Gal(b1-4)GlcNAc(b1-2)Man
How it was run: as §1

[8] = target: Gal(b1-4)GlcNAc(b1-2)Man(a1-3)Man(b1-4)GlcNAc(b1-4)GlcNAc
How it was run: as §1

[9] = target: Gal(b1-4)GlcNAc(b1-2)Man(a1-3)[Gal(b1-4)GlcNAc(b1-2)Man(a1-6)]Man(b1-4)GlcNAc(b1-4)GlcNAc
How it was run: as §1

[10] = target: Gal(b1-4)GlcNAc(b1-2)Man(a1-3)[Gal(b1-4)GlcNAc(b1-2)Man(a1-6)]Man(b1-4)GlcNAc(b1-4)[Fuc(a1-6)]GlcNAc
How it was run: as §1

[11] = target: Gal(b1-4)GlcNAc(b1-2)Man(a1-3)[Gal(b1-4)GlcNAc(b1-2)Man(a1-6)][Gal(b1-4)GlcNAc(b1-4)]Man(b1-4)GlcNAc(b1-4)[Fuc(a1-6)]GlcNAc
How it was run: as §1

[12] = target: Gal(b1-4)GlcNAc(b1-2)Man(a1-3)[Gal(b1-4)GlcNAc(b1-2)Man(a1-6)][GlcNAc(b1-4)]Man(b1-4)GlcNAc(b1-4)[Fuc(a1-6)]GlcNAc
How it was run: as §1

[13] = target: Gal(b1-4)GlcNAc(b1-2)Man(a1-3)[Gal(b1-4)GlcNAc(b1-2)][GlcNAc(b1-4)]Man(b1-4)GlcNAc(b1-4)GlcNAc
How it was run: as §1

[14] = target: Gal(b1-4)GlcNAc(b1-2)Man(a1-3)[GlcNAc(b1-2)Man(a1-6)]Man(b1-4)GlcNAc(b1-4)GlcNAc
How it was run: as §1

[15] = target: Gal(b1-4)GlcNAc(b1-2)Man(a1-3)[GlcNAc(b1-4)][Gal(b1-4)GlcNAc(b1-2)Man(a1-6)]Man(b1-4)GlcNAc(b1-4)GlcNAc
How it was run: as §1

[16] = target: Gal(b1-4)GlcNAc(b1-2)Man(a1-3)[Man(a1-6)]Man(b1-4)GlcNAc(b1-4)GlcNAc
How it was run: as §1

[17] = target: Gal(b1-4)GlcNAc(b1-2)Man(a1-6)Man(b1-4)GlcNAc(b1-4)GlcNAc
How it was run: as §1

[18] = target: Gal(b1-4)GlcNAc(b1-2)Man(a1-6)[GlcNAc(b1-2)Man(a1-3)]Man(b1-4)GlcNAc(b1-4)GlcNAc
How it was run: as §1

[19] = target: Gal(b1-4)GlcNAc(b1-2)Man(a1-6)[Man(a1-3)]Man(b1-4)GlcNAc(b1-4)GlcNAc
How it was run: as §1

[20] = target: Gal(b1-4)GlcNAc(b1-2)[Gal(b1-4)GlcNAc(b1-4)]Man(a1-3)[Gal(b1-4)GlcNAc(b1-2)Man(a1-6)]Man(b1-4)GlcNAc(b1-4)GlcNAc
How it was run: as §1

[21] = target: Gal(b1-4)GlcNAc(b1-2)[Gal(b1-4)GlcNAc(b1-4)]Man(a1-3)[Gal(b1-4)GlcNAc(b1-2)[Gal(b1-4)GlcNAc(b1-6)]Man(a1-6)]Man(b1-4)GlcNAc(b1-4)GlcNAc
How it was run: as §1

[22] = target: Gal(b1-4)GlcNAc(b1-2)[Gal(b1-4)GlcNAc(b1-4)]Man(a1-3)[GlcNAc(b1-4)][Gal(b1-4)GlcNAc(b1-2)Man(a1-6)]Man(b1-4)GlcNAc(b1-4)GlcNAc
How it was run: as §1

[23] = target: Gal(b1-4)GlcNAc(b1-2)[Gal(b1-4)GlcNAc(b1-4)]Man(a1-3)[GlcNAc(b1-4)][Gal(b1-4)GlcNAc(b1-2)[Gal(b1-4)GlcNAc(b1-6)]Man(a1-6)]Man(b1-4)GlcNAc(b1-4)GlcNAc
How it was run: as §1

[24] = target: Gal(b1-4)GlcNAc(b1-2)[Gal(b1-4)GlcNAc(b1-4)]Man(a1-3)[GlcNAc(b1-4)][Gal(b1-4)GlcNAc(b1-2)[Gal(b1-4)GlcNAc(b1-6)]Man(a1-6)]Man(b1-4)GlcNAc(b1-4)[Fuc(a1-6)]GlcNAc
How it was run: as §1

[25] = target: Gal(b1-4)GlcNAc(b1-2)[Gal(b1-4)GlcNAc(b1-6)]Man(a1-6)[Gal(b1-4)GlcNAc(b1-2)Man(a1-3)]Man(b1-4)GlcNAc(b1-4)GlcNAc
How it was run: as §1

[26] = target: Gal(b1-4)GlcNAc(b1-2)[Gal(b1-4)GlcNAc(b1-6)]Man(a1-6)[Gal(b1-4)GlcNAc(b1-2)Man(a1-3)]Man(b1-4)GlcNAc(b1-4)[Fuc(a1-6)]GlcNAc
How it was run: as §1

[27] = target: Gal(b1-4)GlcNAc(b1-2)[Gal(b1-4)GlcNAc(b1-6)]Man(a1-6)[GlcNAc(b1-4)][Gal(b1-4)GlcNAc(b1-2)Man(a1-3)]Man(b1-4)GlcNAc(b1-4)GlcNAc
How it was run: as §1

[28] = target: Gal(b1-4)GlcNAc(b1-2)[Gal(b1-4)GlcNAc(b1-6)]Man(a1-6)[GlcNAc(b1-4)][Gal(b1-4)GlcNAc(b1-2)[Gal(b1-4)GlcNAc(b1-4)]Man(a1-3)]Man(b1-4)GlcNAc(b1-4)[Fuc(a1-6)]GlcNAc
How it was run: as §1

[29] = target: Gal(b1-4)GlcNAc(b1-3)Gal(b1-3)GalNAc
How it was run: as §1

[30] = target: Gal(b1-4)GlcNAc(b1-3)Gal(b1-3)GlcNAc
How it was run: as §1

[31] = target: Gal(b1-4)GlcNAc(b1-3)Gal(b1-4)Glc
How it was run: as §1

[32] = target: Gal(b1-4)GlcNAc(b1-3)Gal(b1-4)GlcNAc
How it was run: as §1

[33] = target: Gal(b1-4)GlcNAc(b1-3)Gal(b1-4)GlcNAc(b1-2)Man(a1-3)[Gal(b1-4)GlcNAc(b1-3)Gal(b1-4)GlcNAc(b1-2)Man(a1-6)]Man(b1-4)GlcNAc(b1-4)GlcNAc
How it was run: as §1

B1: Siglec-7-SA-PE-180 (Homo sapiens), Q9Y286 (protein)
chain: MLLLLLLPLLWGRERVEGQKSNRKDYSLTMQSSVTVQEGMCVHVRCSFSYPVDSQTDSDPVHGYWFRAGNDISWKAPVATNNPAWAVQEETRDRFHLLGDPQTKNCTLSIRDARMSDAGRYFFRMEKGNIKWNYKYDQLSVNVTALTHRPNILIPGTLESGCFQNLTCSVPWACEQGTPPMISWMGTSVSPLHPSTTRSSVLTLIPQPQHHGTSLTCQVTLPGAGVTTNRTIQLNVSYPPQNLTVTVFQGEGTASTALGNSSSLSVLEGQSLRLVCAVDSNPPARLSWTWRSLTLYPSQPSNPLVLELQVHLGDEGEFTCRAQNSLGSQHVSLNLSLQQEYTGKMRPVSGVLLGAVGGAGATALVFLSFCVIFIVVRSCRKKSARPAADVGDIGMKDANTIRGSASQGNLTESWADDNPRHHGLAAHSSGEEREIQYAPLSFHKGEPQDLSGQEATNNEYSEIKIPK
[1]
  glycan array binding signal (z-score): 0.453
[2]
  glycan array binding signal (z-score): -0.535
[3]
  glycan array binding signal (z-score): 0.567
[4]
  glycan array binding signal (z-score): -0.277
Gal(b1-4)Gal
  glycan array binding signal (z-score): -0.091
[5]
  glycan array binding signal (z-score): -0.318
[6]
  glycan array binding signal (z-score): -0.418
Gal(b1-4)Glc
  glycan array binding signal (z-score): -0.184
Gal(b1-4)Glc6S
  glycan array binding signal (z-score): 0.009
Gal(b1-4)GlcNAc
  glycan array binding signal (z-score): -0.116
[7]
  glycan array binding signal (z-score): -0.267
Gal(b1-4)GlcNAc(b1-2)Man
  glycan array binding signal (z-score): 0.353
[8]
  glycan array binding signal (z-score): -0.128
[9]
  glycan array binding signal (z-score): -0.065
[10]
  glycan array binding signal (z-score): -0.374
[11]
  glycan array binding signal (z-score): -0.508
[12]
  glycan array binding signal (z-score): -0.264
[13]
  glycan array binding signal (z-score): -0.228
[14]
  glycan array binding signal (z-score): -0.435
[15]
  glycan array binding signal (z-score): -0.065
[16]
  glycan array binding signal (z-score): 0.048
[17]
  glycan array binding signal (z-score): -0.333
[18]
  glycan array binding signal (z-score): -0.046
[19]
  glycan array binding signal (z-score): -0.239
[20]
  glycan array binding signal (z-score): -0.13
[21]
  glycan array binding signal (z-score): -0.443
[22]
  glycan array binding signal (z-score): -0.381
[23]
  glycan array binding signal (z-score): -0.496
[24]
  glycan array binding signal (z-score): -0.261
[25]
  glycan array binding signal (z-score): -0.427
[26]
  glycan array binding signal (z-score): 0.049
[27]
  glycan array binding signal (z-score): -0.412
[28]
  glycan array binding signal (z-score): -0.249
[29]
  glycan array binding signal (z-score): -0.464
[30]
  glycan array binding signal (z-score): -0.293
[31]
  glycan array binding signal (z-score): -0.525
[32]
  glycan array binding signal (z-score): -0.232
[33]
  glycan array binding signal (z-score): 0.483
